Laboratory results reported in PMC4336329 (PLoS ONE, 2015).
About 14,000 (4.5%) of roughly 310,000 compounds showed an effect of 50% or more. The effect is printed as a negative number. The list shows a part of the results.

Each compound was assayed against human ether-à-go-go-related gene (hERG) potassium channel (human, UniProt Q12809) (assay: primary screen, population patch clamp on CHO cells stably expressing hERG).
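Further: peak tail current of the secondary pulse compared with the same well before compound.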

Sequence of human ether-à-go-go-related gene (hERG) potassium channel (Q12809 whole entry, looked up): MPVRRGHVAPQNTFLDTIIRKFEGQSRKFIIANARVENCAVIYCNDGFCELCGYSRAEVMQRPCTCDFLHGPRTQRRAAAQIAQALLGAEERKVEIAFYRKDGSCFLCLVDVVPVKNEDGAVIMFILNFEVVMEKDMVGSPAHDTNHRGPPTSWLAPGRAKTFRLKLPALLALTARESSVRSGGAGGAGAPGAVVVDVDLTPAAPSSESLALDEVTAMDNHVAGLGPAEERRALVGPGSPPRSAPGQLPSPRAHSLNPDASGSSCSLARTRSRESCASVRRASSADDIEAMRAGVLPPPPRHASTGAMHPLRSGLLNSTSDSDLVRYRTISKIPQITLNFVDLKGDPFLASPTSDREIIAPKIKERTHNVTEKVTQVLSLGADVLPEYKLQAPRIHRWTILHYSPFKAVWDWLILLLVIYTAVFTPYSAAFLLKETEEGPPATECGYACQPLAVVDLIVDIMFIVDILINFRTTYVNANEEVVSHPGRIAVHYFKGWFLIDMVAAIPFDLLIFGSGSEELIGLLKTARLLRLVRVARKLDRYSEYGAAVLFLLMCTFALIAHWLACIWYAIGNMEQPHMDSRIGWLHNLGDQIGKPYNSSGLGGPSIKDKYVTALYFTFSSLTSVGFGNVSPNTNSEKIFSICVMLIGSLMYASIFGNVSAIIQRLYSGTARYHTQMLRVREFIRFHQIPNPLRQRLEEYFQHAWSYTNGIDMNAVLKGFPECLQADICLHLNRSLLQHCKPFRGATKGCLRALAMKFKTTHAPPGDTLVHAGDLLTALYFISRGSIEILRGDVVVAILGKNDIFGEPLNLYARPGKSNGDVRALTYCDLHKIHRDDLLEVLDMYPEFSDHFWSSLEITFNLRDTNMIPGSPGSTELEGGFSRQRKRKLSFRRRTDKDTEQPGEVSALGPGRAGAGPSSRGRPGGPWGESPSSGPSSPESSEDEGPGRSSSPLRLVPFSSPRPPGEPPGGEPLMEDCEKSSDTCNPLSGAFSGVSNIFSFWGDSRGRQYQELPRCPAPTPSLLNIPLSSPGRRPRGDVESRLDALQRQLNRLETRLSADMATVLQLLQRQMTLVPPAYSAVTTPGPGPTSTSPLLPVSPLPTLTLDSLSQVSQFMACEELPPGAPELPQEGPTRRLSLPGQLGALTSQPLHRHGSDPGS

| SMILES | hERG current change (%, negative = inhibition) at 10uM |
| --- | --- |
| CC(C)OC(=O)Cn1c(-c2ccccc2)c(-c2ccccc2)nnc1=O | 5.82% |
| C=CCc1ccccc1OCC(O)CN1C(=O)c2ccccc2C1=O (stereo not shown) | -27.2% |
| CC1Cc2ccccc2N1C(=O)c1cnc2sccn2c1=O (stereo not shown) | 14.4% |
| CCC1CCc2sc(C(=O)NCC3CCCO3)cc2C1 (stereo not shown) | -12.1% |
| Cc1ccc2nc(-c3ccc(NC(=O)CN(C)S(=O)(=O)c4ccccc4)cc3)sc2c1 | 12.4% |
| CNC(=O)CSc1nnnn1-c1ccc2c(c1)OCCO2 | -0.372% |
| O=C1CSC(=S)N1CC1CCCO1 (stereo not shown) | 1.13% |
| Cc1cc(C)c(C)c(OC(=O)c2sc(Cl)nc2C)c1 | -13.3% |
| CCN(CC(=O)Nc1ccc(OC)cc1)C(=O)CSCC(=O)Nc1cc(C)on1 | 8.75% |
| COc1ccc2sc3ccccc3c(=O)c2c1 | -10.1% |
| Cc1cccc(C)c1NC(=O)c1sc(Cl)nc1C | -5.97% |
| CCCn1cc2c(c1-c1ccc(C)cc1)c(=O)n(C)c(=O)n2C | -6.72% |
| Cc1cc(=O)[nH]c(/N=C(\N)Nc2ccc(SC(F)F)cc2)n1 | -15.8% |
| CCN(CC(=O)Nc1c(F)cccc1F)C(=O)C1CC1C (stereo not shown) | 1.31% |
| O=C(COC(=O)c1ccc2c(c1)S(=O)(=O)c1ccccc1C2=O)NC1CC1 | -1.44% |
| O=C1NC(C(=O)O)=CC(c2cccc(Cl)c2Cl)N1 (stereo not shown) | 12.8% |
| CCN(CC)S(=O)(=O)c1cccc(C(=O)NC(C(=O)Nc2nnc(C)s2)C(C)C)c1 (stereo not shown) | -3.34% |
| CCn1cc(C(=O)OCC(=O)c2cc(C)n(-c3ccccc3)c2C)c(=O)c2ccc(C)nc21 | 6.93% |
| CCCC(=O)Nc1ccc(C(=O)NNC(=S)NC(=O)c2ccc(Br)o2)cc1 | 13.5% |
| N#Cc1ccc(C(=O)Nc2cc(S(=O)(=O)Nc3ccc(Cl)cc3)ccc2N2CCCCC2)cc1 | 6.46% |
| COC(C(=O)Nc1ccnn1C1CCN(C(=O)c2cccc(F)c2)CC1)c1ccccc1 (stereo not shown) | 8.16% |
| Cc1cccc(NS(=O)(=O)c2cccc(C(=O)N3CCN(C/C=C/c4ccccc4)CC3)c2)c1 | -18.4% |
| Cc1nnc(Oc2ccccc2)c2ccccc12 | -4.82% |
| O=C(Cc1ccc(Br)cc1)Nc1ccc(S(=O)(=O)Nc2ncccn2)cc1 | 18.7% |
| Cc1ccc(C(=O)N2CCN(c3ccc(NC(=S)NC(=O)Cc4ccccc4)cc3)CC2)cc1 | -17.1% |
